Read counts are not given, so values of variants with three or more changes are uncertain.

First the molecules themselves.
B1: LINE1-mini (parent)
chain: GGCAGAGCUCAACACAGCGUGGCAAAGUGGCUGUGGCUAGACUGCC

This series covers variants of B1. As to the kind of experiment: self-cleavage, relative activity (ratio to wild type); higher = more cleavage; in vitro, sequencing; the parent is a self-cleaving ribozyme.
Consider G33C G35A G36U, for which the self-cleavage was determined as 0.05. Take A16C C31G C46U: the self-cleavage came to 0.02. With C10A G30A G36C the figure was 0.02; with A12U A24C U34C, 0.02. For G17U G36U C42U, the self-cleavage turned out to be 0.02. C37U U38C G40A C46A: the self-cleavage stood at 0.02. As for C10A G17U U20C G30C G40C, the figure is 0.08. With C3A G7U G29U G35U the figure was 0.04; with G2U G19A A24G G44U, 0.02. As for C18A C23A G33A C42A U43G, the figure is 0.11; as for C8A G35A G36A U38G, 0.02. Turning to C8U G35U U38A, the self-cleavage turned out to be 0.06.

In the case of C18A C23U U28A G35C A39C, the self-cleavage worked out at 0.

In the case of A25G C31U G35C, the self-cleavage turned out to be 0.03. As for G5A A12C C31A G36C G44A, the figure is 0. With G5A A11C C15A the figure was 0.03; with U20A G22U A24U G35C G40A C46A, 0.14; with A6C C37G A39G C42U C46A, 0.03. As for A6G A16G G40A, the figure is 0.02; as for A26G G33U G44C, 0.02. Regarding U20G U32A G33C A39U, the self-cleavage came to 0.06.

For G7U A12G A16U C45U, the self-cleavage is 0.71. Regarding C3A G7U G27U C37A, the self-cleavage turned out to be 0.47. On to C8U G27A U28G G40U, for which the self-cleavage is 0.17.

As for U9G C13U G19U, the self-cleavage was determined as 0.04. Regarding A4U G17A C18U, the self-cleavage was determined as 0.13. As for C8U G30C C37U, the figure is 1.88; as for G2C A4U U32C C37A, 0.03. With G5C C10A A11G G27A C42A C46A the figure was 0; with A14C G27U G29A A39G, 0.04; with G7C A26G G30A, 0.27. With U9A A11U A14C G17C U38A the figure was 0.01; with G17U A26U G36U, 0.09; with G17A G29C G44A C46A, 0.11.

In the case of G5U A12G C15A A24U A25G G40U, the self-cleavage turned out to be 0.02. As for A6G G17A C23U C42A, the figure is 0.06. As for G5A A16C G29C C37A C46G, the figure is 0.

In the case of A14C G17A G22C C31A U32C C37G C46G, the self-cleavage stood at 0. For U20G G27A U28C G29A, the self-cleavage turned out to be 0.89.

On to U9A G29U U34A U38A C45A, for which the self-cleavage was found to be 0.66.

As for G22A U28G G33C G35A, the self-cleavage was 0.03. As for A4G C23U A25U C37A U43A, the figure is 0.01; as for A14C A16U G29A, 0.21; as for A4G G17C C46U, 0.32. As for A26U G33A U43C, the figure is 0.04. As for A4C C10A A11G C23A C46A, the figure is 0.01; as for A12U C31A A39G, 0; as for G2U A12U A24C G35A, 0.01. With C18U G22A G29U C46U, the self-cleavage was found to be 0.7.

With A4C U38A C42A, the self-cleavage amounted to 0.05. As for G40U G44A C46A, the figure is 0.05. For G1C A6C G21A, the self-cleavage turned out to be 0.17.

For the variant C15A G44C C45U, the self-cleavage was determined as 0.02. Turning to U9C C10A A11C U20G A25U U28C U32C G36A C37G, the self-cleavage was 0. As for A12U A14C A24U C37A U43C, the figure is 0.01; as for C23A G30A U43C, 0.05; as for G2A C10U U20C G29A, 0.08. As for G2A C13A G30U C31G G33U C42U, the figure is 0.17.

In the case of G1U A14U G22U A26U C37U U38C A39C, the self-cleavage is 0.47. As for G22C G35U G36C, the figure is 0.07; as for G30U U32A G33C, 0.01; as for G7A C10A A12G A14C U20C G22A, 0.01. As for G1U A6U C8U G17C A25G, the figure is 0.05; as for G7U G17A U28C A39G, 0.02. As for G5A C23U G30U, the figure is 0.04; as for G1U U9G C18G C31A, 0.03; as for C13A G29U C31A A41U, 0.07. As to U9A G21U C37G, the self-cleavage stood at 0.06. As for G1C G2C U20A C31U G44U, the figure is 0.03. With U32A U38A C45U the figure was 0.01.

Take A16U C18A G19U U20A U28A: the self-cleavage was found to be 0.09. U20G G44C C46A: the self-cleavage came to 0.06.

Turning to C15G G19U G35U, the self-cleavage was determined as 0.

Consider G1U G2A U9A C13A C45A, for which the self-cleavage stood at 0.3. As for C10U A14G U20A C23U, the figure is 0.15; as for A16G G35U C45A, 0.04. C8U U9G U34A: the self-cleavage was 0.06. For A4U G5A C8G U32A, the self-cleavage came out at 0.07.

With A26U C31A U32A, the self-cleavage worked out at 0.07. With C13G G27U A39C the figure was 0.11.

In the case of G7C C8G C18G C23A C31U, the self-cleavage stood at 0.08. In the case of A25C C31U C37G C42U, the self-cleavage turned out to be 0.02. In the case of G2U A6C G30A A41U U43G, the self-cleavage was found to be 0.02. With A16U C18A C37A C42G the figure was 0.02; with A4U G17U G40U, 0.32. With G2U U38C A41U the figure was 0.01; with C23A A41G C42G, 0.1. As to G2C A14C G17U C18G G40C, the self-cleavage was found to be 0.04. As for G2U C23U C31A G36C, the self-cleavage was 0.04.

For the variant G2A C23G G27C, the self-cleavage worked out at 1.93. In the case of U9C C13A A14U U20C, the self-cleavage came out at 0.03.

With U9G G30C C42A, the self-cleavage turned out to be 0.05. Consider G1U C10U A11U, for which the self-cleavage amounted to 0.02. As for A16U G33C U43A C46G, the figure is 0.02; as for C37U A41G C45A, 0.11; as for G22C C31A G40A, 0.03. Turning to A11U A26U G29U, the self-cleavage came to 0.14. As for A4U U32G G36C C46U, the figure is 0.04; as for A4G A25G U34A, 0.01. With G2C A6C C8A A11U the figure was 0.02. With A11G G22A C45G the figure was 0.03; with G1U G2C G5A G7A G17U G36A, 0.1; with G5A U34C A39G C46G, 0.01. Regarding A24C G30A G40A, the self-cleavage was 0.13. With U9C C10U C23U A25G the figure was 0.01. As for G19A U32C U43G, the figure is 0.07; as for A6U C13U C15A U43C G44A C46A, 0.03. As to C3A A6C G21C, the self-cleavage turned out to be 1.07.

On to G7U C23U G30A G36U, for which the self-cleavage was 0.01. With G1A C18G C42G the figure was 0.08. With G5A G7C A39C C46G the figure was 0.04; with A26C G44C C45U, 0.03. With A16C A24G A39G the figure was 0.14; with C10A C15G U34C A39C, 0. For the variant G21U G27U A41G, the self-cleavage worked out at 0.12. As for G1C G21A G22A G33C, the figure is 0.01; as for G19C A26U G44A C46A, 0.01.

Turning to G7A A14G A25C, the self-cleavage is 0.03. As to G17U A24C U28A G35C, the self-cleavage was found to be 0.01. Turning to A14C G19U G22A G29A G36C, the self-cleavage worked out at 0.02. With C3A G22U G27U G30U the figure was 0.9; with G7A C8A A26C, 0.21. As for A25C G29A A41G, the figure is 0.19; as for G27A C31U G40A C45A, 0.02; as for A4U G5U U32G C42U, 0.04. With U9C A16G G35A, the self-cleavage amounted to 0.02. With G17U A26U G27A U28A C45G the figure was 0.3; with G7U C10G C18U U20G, 0.02. With A4G U32A G40U the figure was 0.17; with G29U U38A G40U, 0.01; with C8U A12U U28A G29A, 0.06. With C3A G30C G35U the figure was 0.37; with C10G A11U A16G G19U A39C G40C, 0.01; with A6C C10A A12G C31U, 0.01. On to G19A U32C G40A, for which the self-cleavage was determined as 0.08. With C8G C13U A14G, the self-cleavage came out at 0.04. As for U20C G27U U28C G44C C46G, the figure is 0.06; as for A12U C13G G30A G44U, 0.13. As to A4G C13U C15G C37U, the self-cleavage was determined as 0.88.

G7A G27A G36U: the self-cleavage came to 0.04. With G17C G29U C46A the figure was 0.32; with C3U C15A C42G, 0.15. With G27C U28C G29A the figure was 0.46; with G7C G17A G27C C31A C45U, 0.07; with A6C C10A A25G, 0.01. Regarding A12G G29A C42A G44U C45G, the self-cleavage was determined as 0.09.

In the case of G2C C8G G30A U38A C46G, the self-cleavage stood at 0. With U20A C23U U38G U43C the figure was 0.02; with A12U C18G G22C G44A, 0.06. With C13A G19A A39G U43A the figure was 0.11; with A16C A24U A25C A26U C42U, 0.01. With A6C U20A U34C the figure was 0.24; with U9A C18U G19U U38A G40C C42A, 0.03.

Turning to G17C C18G G21U, the self-cleavage worked out at 0.14. With G5C G35C C37A the figure was 0.02; with G7A U20A C45G, 0.25; with A6C C37A A41G, 0.03.

Take G19U G22A G40U: the self-cleavage came out at 0.03. With C15G G22U A25C A41C C42A C46U the figure was 0.01; with A12U G22U G40U, 0.08; with G2U C3U G44A, 0.19. Regarding U9C C10G U32C U34G A41C, the self-cleavage stood at 0.03. As for A12G C15U A26U G36A, the figure is 0.06; as for G1C A11U A24G U43C, 0; as for A6C U9C U28G G35U C45A, 0. With G1C G7A A11G U32A G33C the figure was 0.01. With G5U A11U G29U C42A, the self-cleavage was 0.11.

The record behind these values is the RNAGym collection of RNA variant scans (doi:10.7554/elife.90254).
